In the supplement of paper PMC8728848:
This is one part of the list.

Assays:
Assay in all cases: glycan array binding signal (z-score within array); higher = stronger binding
Conditions in all cases: glycan notation: IUPAC condensed, linker removed
[1] = target: GalNAc(b1-4)GlcNAc(b1-2)Man
How it was run: (§1)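 Arrays were curated from the Consortium for Functional Glycomics database, 3228 in total, and kept only where the protein sequence was available. Binding is expressed as a within-array Z-score. This score was averaged across arrays of the same protein sequence at different concentrations or buffers and across linkers, and negative values can be read as non-binding.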

[2] = target: GalNAc(b1-4)GlcNAc(b1-2)Man(a1-3)[GalNAc(b1-4)GlcNAc(b1-2)Man(a1-6)]Man(b1-4)GlcNAc(b1-4)GlcNAc
How it was run: as §1

[3] = target: GalNAc(b1-4)GlcNAc(b1-3)GalNAc(b1-4)GlcNAc
How it was run: as §1

GalNAc(b1-4)GlcNAc6S = target: GalNAc(b1-4)GlcNAc6S
How it was run: as §1

GalNAc(b1-6)GalNAc = target: GalNAc(b1-6)GalNAc
How it was run: as §1

GalNAc3S(b1-4)GlcNAc = target: GalNAc3S(b1-4)GlcNAc
How it was run: as §1

GalNAc3S(b1-4)GlcNAc3S = target: GalNAc3S(b1-4)GlcNAc3S
How it was run: as §1

[4] = target: GalNAc3S(b1-4)[Fuc(a1-3)]GlcNAc
How it was run: as §1

GalNAc4S6S(b1-4)GlcNAc = target: GalNAc4S6S(b1-4)GlcNAc
How it was run: as §1

GalNAc6S(b1-4)GlcNAc = target: GalNAc6S(b1-4)GlcNAc
How it was run: as §1

Glc(a1-4)Glc = target: Glc(a1-4)Glc
How it was run: as §1

[5] = target: Glc(a1-4)Glc(a1-4)Glc(a1-4)Glc
How it was run: as §1

Glc(a1-6)Glc(a1-6)Glc = target: Glc(a1-6)Glc(a1-6)Glc
How it was run: as §1

[6] = target: Glc(a1-6)Glc(a1-6)Glc(a1-6)Glc
How it was run: as §1

Glc(b1-4)Glc = target: Glc(b1-4)Glc
How it was run: as §1

Glc(b1-6)Glc = target: Glc(b1-6)Glc
How it was run: as §1

GlcA(b1-3)Gal = target: GlcA(b1-3)Gal
How it was run: as §1

GlcA(b1-3)GlcNAc = target: GlcA(b1-3)GlcNAc
How it was run: as §1

GlcA(b1-6)Gal = target: GlcA(b1-6)Gal
How it was run: as §1

[7] = target: GlcA3S(b1-3)Gal(b1-4)GlcNAc(b1-2)Man
How it was run: as §1

[8] = target: GlcA3S(b1-3)Gal(b1-4)GlcNAc(b1-3)Gal(b1-4)Glc
How it was run: as §1

[9] = target: GlcNAc(a1-3)Gal(b1-4)GlcNAc
How it was run: as §1

[10] = target: GlcNAc(a1-4)Gal(b1-3)GlcNAc
How it was run: as §1

[11] = target: GlcNAc(a1-4)Gal(b1-4)GalNAc
How it was run: as §1

[12] = target: GlcNAc(a1-4)Gal(b1-4)GlcNAc
How it was run: as §1

[13] = target: GlcNAc(a1-4)Gal(b1-4)GlcNAc(b1-3)Gal(b1-4)Glc
How it was run: as §1

[14] = target: GlcNAc(a1-4)Gal(b1-4)GlcNAc(b1-3)Gal(b1-4)GlcNAc
How it was run: as §1

[15] = target: GlcNAc(a1-4)Gal(b1-4)GlcNAc(b1-3)Gal(b1-4)GlcNAc(b1-3)Gal(b1-4)GlcNAc
How it was run: as §1

[16] = target: GlcNAc(a1-4)Gal(b1-4)GlcNAc(b1-3)Gal(b1-4)[Fuc(a1-3)]GlcNAc(b1-3)Gal(b1-4)[Fuc(a1-3)]GlcNAc
How it was run: as §1

[17] = target: GlcNAc(a1-6)Gal(b1-4)GlcNAc
How it was run: as §1

B1: SialidaseA (Arthrobacter ureafaciens) (protein)
chain: MRSNSTSAPSLVRRAATGVLTCAVSIGLLAGLGLPAQAAPTPPNSPTLPPGSFSETNLAADRTAANFFYRIPALTYLGNDVVLAAWDGRPGSAADAPNPNSIVQRRSTDGGKTWGPVQVIAAGHVADASGPRYGYSDPSYIYDAEANKVFAFFVYSKDQGFGGSQFGNDDADRNVISSAVIESSDAGVTWSQPRLITSVTKPGTSKTNPAAGDVRSNFASSGEGIQLKYGPHKGRLIQQYAGDVRQADGSNKIQAYSVYSDDHGVTWHKGANVGDRMDENKTVELSDGRVLLNSRDNANRGYRKVAVSTDGGATYGPVSQDTELPDPANNGAIARMFPNAAQGSADAKKLIFTNANSKTGRENVSARVSCDDGETWPGVRTIRSGFSAYSTVTRLADGKFGVLYEGNYTDNMPFATFDDAWLNYVCAPLAVPAVNIAPSATQEVPVTVTNQEATTLSGATATVYTPSGWSATTVPVPDVAPGASVTVTVALTAPADASGPRSLNAAFTTADGRVSQFTFTATTPVAPQVGLTITGSAPARDVAANPYQAGDVLGYTLNVKSTANVAANSVPLTGTFDSGFLPPAAPNCRYNNLAAGASYNCTTAKHTITAADMERGYFVPEATFSITSTTTPSLTKTVQFTGAAVALRDGLISADISGARTDVGRDLATRPYAAGELVPYAFTVKNTSPFVEQVVPTAGNFSPFLPAGAGNCRYLSLPAGQSYECATPRHAVTAEEVEQGFFVPDTTWEVSAAGQSTRTYRINGGEVDLLVRDAALSATVVAEWKDADGDRFASAGDPVTFTYTVGNAGNVALTGLEAPDAGISLPFLAPGDTATATREHVLTAADVAGGSLAASAFEATARNGSKEVTATAEGQPLELKVQPAQPSKEPELTVQDLEDQTPPFDLGTAFKYRTGQKVSLAGLEYGQWYYVYLNKTGYRLGWMFPTTGDTVEFILPPEVRNGRDDVVVLDKDGRRVSFDRLQVTPKGEKI
glycan array binding signal (z-score) [1]: -0.654 | glycan array binding signal (z-score) [2]: -0.743 | glycan array binding signal (z-score) [3]: -0.584 | glycan array binding signal (z-score) (GalNAc(b1-4)GlcNAc6S): -0.463 | glycan array binding signal (z-score) (GalNAc(b1-6)GalNAc): -0.312 | glycan array binding signal (z-score) (GalNAc3S(b1-4)GlcNAc): -0.69 | glycan array binding signal (z-score) (GalNAc3S(b1-4)GlcNAc3S): -0.623 | glycan array binding signal (z-score) [4]: -0.289 | glycan array binding signal (z-score) (GalNAc4S6S(b1-4)GlcNAc): -0.506 | glycan array binding signal (z-score) (GalNAc6S(b1-4)GlcNAc): -0.6 | glycan array binding signal (z-score) (Glc(a1-4)Glc): -0.606 | glycan array binding signal (z-score) [5]: -0.284 | glycan array binding signal (z-score) (Glc(a1-6)Glc(a1-6)Glc): -1.32 | glycan array binding signal (z-score) [6]: -0.604 | glycan array binding signal (z-score) (Glc(b1-4)Glc): -0.607 | glycan array binding signal (z-score) (Glc(b1-6)Glc): -0.959 | glycan array binding signal (z-score) (GlcA(b1-3)Gal): -0.706 | glycan array binding signal (z-score) (GlcA(b1-3)GlcNAc): -0.644 | glycan array binding signal (z-score) (GlcA(b1-6)Gal): -0.705 | glycan array binding signal (z-score) [7]: -0.607 | glycan array binding signal (z-score) [8]: -0.761 | glycan array binding signal (z-score) [9]: -0.538 | glycan array binding signal (z-score) [10]: -0.545 | glycan array binding signal (z-score) [11]: -0.771 | glycan array binding signal (z-score) [12]: -0.665 | glycan array binding signal (z-score) [13]: -0.515 | glycan array binding signal (z-score) [14]: -0.399 | glycan array binding signal (z-score) [15]: -0.574 | glycan array binding signal (z-score) [16]: 0.494 | glycan array binding signal (z-score) [17]: -0.668
